In all, about 320,000 compounds went through this assay and about 9,100 (2.8%) were called active. Inconclusive means that the source gave no clear call. Such entries were picked first, then a sample of the others. The call rests on the fitted dose curve; in most records, active means well fitted activation curve with a large enough effect; inconclusive means small, poorly fitted or top-dose-only effect; inactive means no such curve, though single readings can be large or run the other way. Potencies of inconclusive entries are left out as doubtful fits.
assay: qHTS Assay for Rab9 Promoter Activators; settings: Huh7 Rab9 promoter-luciferase reporter, luminescence, 24 h; series mostly up to 9.22 µM; further: nearly all actives have a fitted effect of over 60% in size
Method in brief: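 Using Huh7 cells stably transfected with Rab9 promoter–luciferase, compounds were incubated 24 h at 37 °C, 5% CO2; luciferase luminescence was read 10 min after reagent addition.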
Potency means the concentration at half of the fitted maximal effect; tags describe the fitted curve by direction and shape.

Question: With `C/C(=N\Nc1nc(C(C)(C)C)cs1)c1ccc(O)cc1` as the compound, how does the Potency read?
Answer: inconclusive [activator, single point]

Question: For `Cc1cccnc1NC(=O)Nc1cccc(Cl)c1`, which Potency is on record?
Answer: inconclusive [activator, single point]

Question: With `COc1ccc(C)cc1S(=O)(=O)n1nc(C)cc1C` as the compound, how does the Potency read?
Answer: inactive

Question: For `CCN(CC)S(=O)(=O)c1cc(C(=O)Nc2cc(C)[nH]n2)ccc1Cl`, which Potency is on record?
Answer: active: 2.51 µM

Question: For `O=C(c1cc(COc2ccc(F)cc2Cl)on1)N1CCSCC1`, which Potency is on record?
Answer: active: 3.98 µM

Question: Which Potency does the source give for `CC(C)(C)C(=O)NC(=S)NCCc1ccccc1` here?
Answer: inconclusive [activator, partial curve]

Question: Which Potency does the source give for `Cc1nc2c(ccc3nc(NC(=O)Cc4cccc5ccccc45)sc32)s1` here?
Answer: inconclusive [activator, single point]

Question: With `Cc1nc(NC(=O)C2CC2)sc1C(=O)Nc1ccccc1Cl` as the compound, how does the Potency read?
Answer: active: 2.51 µM

Question: With `Cc1cc(/C=C(/C#N)C(=O)Nc2ccccc2)c(C)n1-c1cccnc1` as the compound, how does the Potency read?
Answer: active: 3.98 µM

Question: For `COC(=O)CCC(=O)N1CCC(CCC(=O)NCc2ccc(F)cc2)CC1`, which Potency is on record?
Answer: inactive

Question: Which Potency does the source give for `CCOC(=O)c1sc(=NC(=O)c2c(F)cccc2F)n(C)c1C` here?
Answer: inconclusive [activator, single point]

Question: Which Potency does the source give for `CC(C)(C)c1ccc(S(=O)(=O)N2CCN(C(=O)c3ccc4c(c3)C(=O)N(Cc3ccncc3)C4=O)CC2)cc1` here?
Answer: inactive

Question: Which Potency does the source give for `CCOc1ccccc1Oc1coc2cc(OC)ccc2c1=O` here?
Answer: inconclusive [activator, partial curve]

Question: With `CC(C)C(=O)Nc1ccc(-c2nc3cccnc3o2)cc1` as the compound, how does the Potency read?
Answer: active: 0.501 µM

Question: For `Fc1ccccc1Cc1noc(CN2CCC(OCc3cccnc3)CC2)n1`, which Potency is on record?
Answer: inconclusive [activator, single point]

Question: Which Potency does the source give for `O=C(N/N=C/c1c[nH]c2ccccc12)c1cccc(Cl)c1` here?
Answer: inconclusive [activator, single point]

Question: Which Potency does the source give for `O=C(Nc1ccccc1O)c1csc2c1CCCC2` here?
Answer: inconclusive [activator, single point]

Question: For `Nc1ccccc1C(=O)Nc1cccc(C(=O)O)c1`, which Potency is on record?
Answer: active: 2.24 µM

Question: With `CC(=O)Nc1ccc(SCC(=O)Nc2ccccc2-c2ccccc2)cc1` as the compound, how does the Potency read?
Answer: inactive

Question: With `Cc1nc(/C=C/c2ccccc2)[nH]c(=O)c1-c1ccccc1` as the compound, how does the Potency read?
Answer: active: 0.631 µM

Question: With `O=C(NCCC1=CCCCC1)c1ccc(F)cc1` as the compound, how does the Potency read?
Answer: active: 0.447 µM

Question: With `N#C/C(=C/c1ccc(N2CCOCC2)o1)c1ccc(Cl)cc1` as the compound, how does the Potency read?
Answer: active: 2.82 µM

Question: For `CCn1nnnc1SCC(=O)c1ccc2c(c1)OCCO2`, which Potency is on record?
Answer: inconclusive [activator, partial curve]

Question: Which Potency does the source give for `COc1cccc(C(=O)Nc2sc(C(C)C)cc2C(N)=O)c1OC` here?
Answer: inactive

Question: Which Potency does the source give for `O=C(N/N=C/c1c[nH]c2ccccc12)c1ccccc1` here?
Answer: inconclusive [activator, single point]

Question: For `Cc1ccc(C)c(-c2nnc(NC(=O)CCS(=O)(=O)c3ccccc3)o2)c1`, which Potency is on record?
Answer: inactive

Question: With `CCN1/C(=C/C=C/c2sc3ccccc3[n+]2CC)Sc2ccccc21` as the compound, how does the Potency read?
Answer: inactive

Question: With `CC(=O)Nc1ccc(C(=O)/C=C/c2ccc[nH]2)cc1` as the compound, how does the Potency read?
Answer: inconclusive [activator, single point]

Question: With `N#CC1=C2Sc3ccccc3N2CCCC1=O` as the compound, how does the Potency read?
Answer: inconclusive [activator, partial curve]

Question: For `Cc1nn2cc(-c3ccc(-c4ccccc4)cc3)nc2s1`, which Potency is on record?
Answer: inconclusive [activator, full curve]

Question: For `O=C(c1cc2cc([N+](=O)[O-])ccc2oc1=O)n1cccn1`, which Potency is on record?
Answer: active: 3.98 µM

Question: For `Nc1ccc(/C=C/C(=O)c2cccs2)cc1`, which Potency is on record?
Answer: active: 3.55 µM

Question: Which Potency does the source give for `COc1cnc(-c2ccccn2)[nH]c1=O` here?
Answer: inactive

Question: For `CCOC(=O)c1sc(/N=C/C2=C(O)CC(C)(C)CC2=O)c(C(=O)OCC)c1C`, which Potency is on record?
Answer: inconclusive [activator, full curve, poor fit]

Question: With `Cc1cc2ccccn2c1C(=O)Nc1ccccc1` as the compound, how does the Potency read?
Answer: inconclusive [activator, single point]

Question: For `Cc1nn(C)c(C)c1CNC(=O)Nc1cccc(Cl)c1`, which Potency is on record?
Answer: inconclusive [activator, partial curve]

Question: For `COCCNC(=O)C(c1cccnc1)N(Cc1ccccc1)C(=O)Cn1nnc2ccccc21` (configuration not stated), which Potency is on record?
Answer: inconclusive [activator, single point]

Question: Which Potency does the source give for `Cc1ccc(NC(=O)C(C)Sc2nnc(C)n2C)cc1` (configuration not stated) here?
Answer: inactive

Question: With `O=S(=O)(Nc1cccc(-c2ccc(N3CCCCCC3)nn2)c1)c1ccc(C(F)(F)F)cc1` as the compound, how does the Potency read?
Answer: inconclusive [activator, single point]

Question: With `CCCCCCCCCn1ccc(=N)cc1` as the compound, how does the Potency read?
Answer: inactive

Question: With `CCNCCC(=O)N1c2ccccc2Sc2ccc(C(F)(F)F)cc21` as the compound, how does the Potency read?
Answer: inactive

Question: With `Cc1cccc(-c2oc3ccc(-c4ccc5c(c4)OCO5)cc3c2C#Cc2cncn2C)c1` as the compound, how does the Potency read?
Answer: inactive

Question: With `COc1ccc2oc(C(=O)Nc3nc4ccccc4[nH]3)c(C)c2c1` as the compound, how does the Potency read?
Answer: active: 0.316 µM

Question: For `O=C(CN1CCN(CCN2C(=O)c3cccc4cccc(c34)C2=O)CC1)c1ccc(Cl)cc1`, which Potency is on record?
Answer: inconclusive [activator, single point]

Question: For `O=C(/C=C/c1cccs1)Nc1nncs1`, which Potency is on record?
Answer: inconclusive [activator, single point]

Question: Which Potency does the source give for `COc1ccccc1C(=O)NC(=O)COC(=O)CNC(=O)c1ccccc1` here?
Answer: inactive

Question: For `O=C1N=C(N2CCOCC2)S/C1=C\C=C/c1ccccc1`, which Potency is on record?
Answer: inconclusive [activator, single point]

Question: For `Fc1ccc(N/N=C/C=C/c2ccccc2)c(F)c1`, which Potency is on record?
Answer: inconclusive [activator, single point]

Question: With `CNc1nc(-c2ccc(Cl)cc2)cs1` as the compound, how does the Potency read?
Answer: active: 2.82 µM

Question: For `CC(C)[C@H](NC(=O)c1cccc(S(=O)(=O)N2CCOCC2)c1)C(=O)Nc1nc2ccccc2s1`, which Potency is on record?
Answer: inconclusive [activator, single point]

Question: With `ClC1(Cl)CC1CSc1nc2ccccc2[nH]1` (configuration not stated) as the compound, how does the Potency read?
Answer: inconclusive [activator, single point]

Question: For `COc1ccc2c(c1OC)C(=O)N(c1cccc(C)c1)C2`, which Potency is on record?
Answer: active: 1.41 µM

Source: PubChem BioAssay AID485297 (National Center for Advancing Translational Sciences (NCATS), 2010)
